Out of some 48,000 compounds screened, about 120 (0.25%) were called active. Another 4% or so got no clear call; they are omitted. Calls come from the whole dose curve; as a rule, active = well fitted activation curve with a large enough effect; inconclusive = small, poorly fitted or top-dose-only effect, or another doubt; inactive = no such curve, though single readings can be large or run the other way. This is a selection; strong and weak results do not stand in their true shares. The source gives no active or inactive call for entries shown without one.

The values below come from PubChem BioAssay AID1508624 (National Center for Advancing Translational Sciences (NCATS), 2021).
Potency is the fitted concentration of half-maximal effect.

A short description of the experiment: Primary qHTS for Identification of Small Molecule Activators of Huntingtin-Antisense Promoter Activity. Note: nearly all actives have a fitted effect of over 55% in size. The conditions noted are these: HEK293 HTT-AS promoter firefly luciferase reporter, 24 h; activity change, positive = activation: at 57.5 µM (top of the series), percent change from vehicle, -100% = no light. From the text:
Assay Provider: Russell L. Margolis M.D.
Department Neurology, Johns Hopkins University School of Medicine, Baltimore, MD
Huntington's Disease (HD) is a neurodegenerative disorder caused by a CAG repeat expansion in exon 1 of huntingtin (HTT). While there are currently no disease-modifying treatments for HD, recent efforts have focused on development of nucleotide-based therapeutics to lower HTT expression. As an alternative to siRNA or oligonucleotide methods, we hypothesized that suppression of HTT expression might be accomplished by small molecules that either (1) directly decrease HTT expression by suppressing HTT promoter activity or (2) indirectly decrease HTT expression by increasing the promoter activity of HTT-AS, the gene antisense to HTT that appears to inhibit expression of HTT.
We developed and employed a high throughput screen for modifiers of HTT and HTT-AS promoter activity using luminescent reporter HEK293 cells; of the 52,041 compounds tested, we identified 898 replicable hits. We used a rigorous stepwise approach to assess compound toxicity and the capacity of the compounds to specifically lower huntingtin protein in 5 different cell lines, including HEK293 cells, HD lymphoblastoid cells, mouse primary neurons, HD iPSCs differentiated into cortical-like neurons, and HD hESCs. We found no compounds which were able to lower huntingtin without lowering cell viability in all assays, though the potential efficacy of a few compounds at non-toxic doses could not be excluded.
SEQUENCE No. (1, 2, 3, etc.); […] (e.g., Cells, Incubation, Reagent, etc.); VALUE and DESCRIPTION.
1; Reagent; 4 uL; 2,500 Hek293 luciferase reporter cells per wells
3; Compound; 23 nL; Control inhibitor / compound library
5; Reagent; 2.5 uL; Firefly Luc reagent; Dual-Glo Luciferase Reporter Assay System (Promega)
6; Time; 10 min; room temperature incubation
7; Detection; Luminescence; FLuc
NOTES (numbers refer to sequence above)
1; High-throughput screening, measuring luminescence from a Hek293 luciferase reporter, was performed in 1,536 well white-walled tissue-culture treated plates. 2,500 cells were plated in 4 µL of Opti-MEM per well using a Multidrop Combi Reagent Dispenser (ThermoFisher).
2; Assay plates were cultured for 24 hours.
3; Control inhibitor (PTC124; final concentration of 50 uM) and compound library (at final concentrations of 460 nM - 57.5 uM) were added to the assay plate using the Kalypsis Pintool Robotic System equipped with 1536 pinheads.
4; Cells were then incubated for 24 hours at 37 degrees C prior to luminescence measurements.
5; In all cases, luminescence was measured using the Dual-Glo Luciferase Reporter Assay System (Promega) following the manufacturer's instructions.
6; Room temperature incubation.
7; Luminescence signal was obtained using the PerkinElmer ViewLux plate reader. Results were normalized to vehicle control (0% activity) and zero RLU (-100% activity).
As to `O=S(=O)(Nc1ccc(-c2ccc(N3CCCC3)nn2)cc1)c1ccccc1Cl`, the activity change, positive = activation is -0.493%. On the same count and under the same terms, the same measure for `COc1cc(OC)c(NC(=O)Nc2sc3nc4n(c(=O)c3c2C)CCC(C)CC4)cc1Cl` (configuration not stated): 1.21%; for `CCc1ccc(OCC(=O)Nc2ccc(Cl)c(-c3nc4cc(C)cc(C)c4o3)c2)cc1`: -0.151%. For the molecule `Cc1nn(-c2ccc(N3CCCC3)nn2)c(C)c1CCC(=O)NCc1ccc(F)cc1`, the activity change, positive = activation was 2.86%. Same read-out and setting: the same measure for `CC(=O)c1ccc(NC(=O)/C=C/c2ccc(C)o2)cc1`: 57.3%. Same read-out and setting: to `Cc1ccc(OCCn2c(-c3ccc(Br)cc3)nc3ccccc3c2=O)cc1C` belongs 23.3%.

Turning to `CCOc1ccc(NC(=O)CC2C(=O)N(c3ccccc3)C(=O)N2Cc2cccc(OC)c2)cc1` (configuration not stated), the activity change, positive = activation is 27.8%.

For the molecule `COc1ccc(S(=O)(=O)Nc2cc3c(cc2N2CCOCC2)n(C)c(=O)n3C)cc1`, the activity change, positive = activation is -2.36%. Turning to `CCc1c(C)c2ccc(O)c(CN3CCN(c4ccc(OC)cc4)CC3)c2oc1=O`, the activity change, positive = activation is -9.47%.

As for `Cc1ccc(-c2nnc(Nc3ccc(OCC(N)=O)cc3)c3ccccc23)cc1S(=O)(=O)N(C)C`, the activity change, positive = activation is -35%. The same measure, in the same setting: to `Fc1ccc(C(Nc2ccccc2Cl)c2nnc(-c3ccccc3Cl)o2)cc1` (configuration not stated) belongs -5.11%; to `Cc1ccc(NC(=O)c2c(C)oc3ccc(O)c(CN4CCCC4)c23)c(C)c1`, -6.19%. Take `CCc1ccccc1NS(=O)(=O)c1ccc2oc(=O)c3ncn(C)c3c2c1`: the activity change, positive = activation was -8.31%. Still for that read-out and setting: to `COc1ccccc1OCCCSc1nc(-c2ccc(C(C)(C)C)cc2)nc2cc(=O)[nH]n12` belongs -9.71%; to `Cc1ccc(Cl)cc1NS(=O)(=O)c1ccc2oc(=O)c3ncn(C)c3c2c1`, -10.4%; to `Cc1oc2ccc(O)c(CN3CCCC3)c2c1C(=O)Nc1ccccc1`, -5.82%. Still for that read-out and setting: to `CC(C)N=C(N)/N=C(\N)Nc1ccc(Cl)cc1` belongs inactive: -8.47%; to `COCCOC(=O)C1=C(C)NC2=C(C(=O)CC(c3ccccc3OC)C2)C1c1cccc(O)c1` (configuration not stated), inactive: -9.15%; to `CC1Cc2cc(S(=O)(=O)NCCc3ccc(Cl)cc3)ccc2N1C(=O)C1CCC1` (configuration not stated), -23.3%. On to `Fc1ccc(-n2ncc3c(NCCCn4ccnc4)ncnc32)cc1`, for which the Potency was active: 2.82 µM. `CC1Cc2cc(S(=O)(=O)CCC(=O)NCc3ccc(Cl)cc3)ccc2N1C(=O)C1CC1` (configuration not stated): the activity change, positive = activation is -7.23%. Consider `COCCOC(=O)C1=C(C)NC(=O)NC1c1cn(-c2ccccc2)nc1-c1ccccc1` (configuration not stated), for which the activity change, positive = activation is -2.52%.

In the case of `O=C(CN1CCN(Cc2ccccc2F)C1=O)NCc1ccccc1`, the “activity change, positive = activation” value is inactive: -10.6%.

Turning to `CCOc1ccc(CNC(=O)c2cc3ccccn3n2)cc1`, the activity change, positive = activation came to 54.2%. Regarding `CCCC(=O)Nc1ccc2oc(-c3ccc(O)c(Br)c3)nc2c1`, the activity change, positive = activation amounted to 99.8%. On the same count and under the same terms, to `Cc1cc(Nc2cccc(Cl)c2)nc2ccc(NC(=O)COc3ccc(Cl)cc3)cc12` belongs inactive: -5.81%; to `COc1ccc(C)cc1NS(=O)(=O)c1ccc2oc(=O)c3ncn(C)c3c2c1`, -6.96%.
